Results are given in words; binding and its absence hold for the method and conditions named. Binding seen in cells or lysates may run through a third protein. Some binding calls cover weakened binding; strength is not graded here. For part of these data: Where a sequence is shown, tags or fusion partners need not be part of it.
How the values were obtained:
[1] = target: myc-CCDC22 (144–627) (human) (UniProt O60826); test: co-IP; Myc-Trap on lysates of HEK293T cells transfected with full-length, point-mutant or truncated myc-CCDC22; blotted for endogenous proteins
[2] = target: myc-CCDC22 (1–143) (human) (UniProt O60826); test: as above
[3] = target: myc-CCDC22 (1–322) (human) (UniProt O60826); test: as above
[4] = target: myc-CCDC22 (323–627) (human) (UniProt O60826); test: as above
[5] = target: myc-CCDC22 E239K, expressed in HEK293T (human) (UniProt O60826); test: as above
[6] = target: myc-CCDC22 R128Q, expressed in HEK293T (human) (UniProt O60826); test: as above
[7] = target: myc-CCDC22 R321W, expressed in HEK293T (human) (UniProt O60826); test: as above
[8] = target: myc-CCDC22 T17A, expressed in HEK293T (human) (UniProt O60826); test: as above
[9] = target: myc-CCDC22 T30A, expressed in HEK293T (human) (UniProt O60826); test: as above
[10] = target: T1, VPS33B K419D L431K-FLAG-BirA* (human) (UniProt Q9H267); test: co-IP; anti-FLAG M2 magnetic resin on lysates of stable HEK293 Flp-In T-REx cells expressing FLAG-BirA*-tagged bait (tetracycline-induced); 10 mM Tris-HCl pH 7.5, 150 mM NaCl, 0.5 mM EDTA, 0.5% NP-40; 1 h at 4 °C; eluted with FLAG peptide; blotted for endogenous protein
T1 sequence: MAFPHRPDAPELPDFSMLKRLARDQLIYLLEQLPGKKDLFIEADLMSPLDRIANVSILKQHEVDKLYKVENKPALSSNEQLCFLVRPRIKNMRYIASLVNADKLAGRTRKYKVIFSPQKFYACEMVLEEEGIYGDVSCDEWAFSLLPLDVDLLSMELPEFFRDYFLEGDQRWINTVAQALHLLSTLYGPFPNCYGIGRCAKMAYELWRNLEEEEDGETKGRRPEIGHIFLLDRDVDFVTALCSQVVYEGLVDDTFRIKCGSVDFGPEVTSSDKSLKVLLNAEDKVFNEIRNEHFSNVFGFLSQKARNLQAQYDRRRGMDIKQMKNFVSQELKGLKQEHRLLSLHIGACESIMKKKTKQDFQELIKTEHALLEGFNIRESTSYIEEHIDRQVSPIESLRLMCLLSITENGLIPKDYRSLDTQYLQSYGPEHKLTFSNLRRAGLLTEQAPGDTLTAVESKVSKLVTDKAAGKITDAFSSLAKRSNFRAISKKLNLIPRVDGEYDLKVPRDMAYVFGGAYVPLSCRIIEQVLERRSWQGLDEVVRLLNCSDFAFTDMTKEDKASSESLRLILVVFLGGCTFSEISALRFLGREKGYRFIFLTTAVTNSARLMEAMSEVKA

Amino acid sequences for entries named in this document (tags omitted). A change or cut given only in a name is not applied to a line headed by its entry. Residues count along the entry.
UniProt O60826: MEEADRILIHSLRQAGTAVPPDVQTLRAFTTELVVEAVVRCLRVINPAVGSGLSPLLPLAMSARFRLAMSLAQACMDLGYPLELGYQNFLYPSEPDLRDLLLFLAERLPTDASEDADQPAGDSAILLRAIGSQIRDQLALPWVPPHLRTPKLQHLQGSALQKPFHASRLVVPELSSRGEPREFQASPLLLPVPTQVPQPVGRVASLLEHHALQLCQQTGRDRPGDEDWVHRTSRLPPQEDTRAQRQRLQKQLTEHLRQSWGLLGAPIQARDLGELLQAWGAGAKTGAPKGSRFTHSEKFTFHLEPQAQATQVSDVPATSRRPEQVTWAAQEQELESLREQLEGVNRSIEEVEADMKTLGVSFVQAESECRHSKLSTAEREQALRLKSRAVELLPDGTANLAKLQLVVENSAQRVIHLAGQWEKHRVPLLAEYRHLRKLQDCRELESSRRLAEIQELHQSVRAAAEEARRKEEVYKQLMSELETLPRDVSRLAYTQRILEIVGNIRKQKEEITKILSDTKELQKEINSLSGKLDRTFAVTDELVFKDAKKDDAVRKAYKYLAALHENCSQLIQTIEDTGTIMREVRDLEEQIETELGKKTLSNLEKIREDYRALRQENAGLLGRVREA
myc-CCDC22 (1–322): residues 1-322 of O60826
myc-CCDC22 (1–143): residues 1-143 of O60826
myc-CCDC22 (144–627): residues 144-627 of O60826
myc-CCDC22 (323–627): residues 323-627 of O60826

[11] = target: T2, VPS33B P428D L431K-FLAG-BirA* (human) (UniProt Q9H267); test: as above
T2 sequence: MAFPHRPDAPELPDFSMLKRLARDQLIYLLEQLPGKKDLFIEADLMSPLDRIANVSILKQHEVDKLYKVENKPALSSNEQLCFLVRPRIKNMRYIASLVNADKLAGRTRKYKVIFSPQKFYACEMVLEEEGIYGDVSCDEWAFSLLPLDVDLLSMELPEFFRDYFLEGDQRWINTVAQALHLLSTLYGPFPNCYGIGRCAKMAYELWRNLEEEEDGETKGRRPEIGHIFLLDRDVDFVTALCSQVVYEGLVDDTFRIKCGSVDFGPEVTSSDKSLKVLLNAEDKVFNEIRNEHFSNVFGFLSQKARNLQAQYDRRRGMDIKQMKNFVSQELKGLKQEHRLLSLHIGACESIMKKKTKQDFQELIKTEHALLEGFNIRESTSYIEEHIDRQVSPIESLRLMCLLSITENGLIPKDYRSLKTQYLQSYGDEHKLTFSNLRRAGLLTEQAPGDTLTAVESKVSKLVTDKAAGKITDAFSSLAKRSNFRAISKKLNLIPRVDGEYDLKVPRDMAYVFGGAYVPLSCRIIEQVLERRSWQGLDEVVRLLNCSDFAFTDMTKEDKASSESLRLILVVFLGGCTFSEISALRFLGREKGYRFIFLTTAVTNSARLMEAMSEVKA

[12] = target: T3, VPS33B-FLAG-BirA* (human) (UniProt Q9H267); test: as above
T3 sequence: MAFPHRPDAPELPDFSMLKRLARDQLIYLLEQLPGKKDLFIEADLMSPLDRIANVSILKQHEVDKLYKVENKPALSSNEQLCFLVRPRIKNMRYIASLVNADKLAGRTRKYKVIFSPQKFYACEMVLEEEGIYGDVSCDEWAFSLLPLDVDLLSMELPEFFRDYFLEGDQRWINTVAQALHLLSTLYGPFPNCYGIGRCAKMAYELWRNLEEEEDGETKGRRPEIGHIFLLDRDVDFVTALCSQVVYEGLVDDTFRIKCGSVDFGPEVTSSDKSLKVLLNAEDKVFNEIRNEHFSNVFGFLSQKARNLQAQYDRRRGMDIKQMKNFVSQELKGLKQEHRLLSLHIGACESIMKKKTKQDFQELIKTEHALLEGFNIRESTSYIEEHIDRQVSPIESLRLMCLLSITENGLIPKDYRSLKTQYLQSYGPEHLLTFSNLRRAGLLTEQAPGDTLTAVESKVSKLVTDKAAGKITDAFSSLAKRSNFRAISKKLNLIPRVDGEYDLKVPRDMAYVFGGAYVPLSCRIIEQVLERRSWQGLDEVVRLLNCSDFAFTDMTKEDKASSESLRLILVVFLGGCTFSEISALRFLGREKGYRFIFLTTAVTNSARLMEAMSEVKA

- binding [1]: binds
- binding [2]: no binding
- binding [3]: no binding
- binding [4]: binds
- binding [5]: binds
- binding [6]: binds
- binding [7]: binds
- binding [8]: binds
- binding [9]: binds
- binding [10]: no binding
- binding [11]: binds weakly
- binding [12]: binds
B1: endogenous VIPAR (protein, UniProt Q9H9C1 1-493)
chain: MNRTKGDEEEYWNSSKFKAFTFDDEDDELSQLKESKRAVNSLRDFVDDDDDDDLERVSWSGEPVGSISWSIRETAGNSGSTHEGREQLKSRNSFSSYAQLPKPTSTYSLSSFFRGRTRPGSFQSLSDALSDTPAKSYAPELGRPKGEYRDYSNDWSPSDTVRRLRKGKVCSLERFRSLQDKLQLLEEAVSMHDGNVITAVLIFLKRTLSKEILFRELEVRQVALRHLIHFLKEIGDQKLLLDLFRFLDRTEELALSHYREHLNIQDPDKRKEFLKTCVGLPFSAEDSAHIQDHYTLLERQIIIEANDRHLESAGQTEIFRKHPRKASILNMPLVTTLFYSCFYHYTEAEGTFSSPVNLKKTFKIPDKQYVLTALAARAKLRAWNDVDALFTTKNWLGYTKKRAPIGFHRVVEILHKNNAPVQILQEYVNLVEDVDTKLNLATKFKCHDVVIDTYRDLKDRQQLLAYRSKVDKGSAEEEKIDALLSSSQIRWKN
